# Results as given in the supplement of paper PMC10338343.
# ± gives the standard deviation. In all, about 6,600 sequences were measured (“pre-steady-state target cleavage rate”: median about 0.07, highest 2% from about 0.72 on). This is a selection; strong and weak results do not stand in their true shares.
# Tested on: MIWI (PIWIL1) piRISC loaded with Kctd7 piRNA (30 nt)
# Assay: pre-steady-state target cleavage rate (min^-1); MIWI and MILI are mouse PIWI proteins and EfPiwi is from a freshwater sponge; tags in brackets are library labels; higher = faster piRNA-guided slicing of the target
# Conditions: guide: Kctd7 piRNA 5'p-UGUUAAUCUCUCAGAGAAGGUGACAGUGAU; auxiliary factor: 500 nM mouse GTSF1
# In short: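 The pre-steady-state cleavage rate was obtained by Cleave-'n-Seq with a burst-and-steady-state fit. A transcribed, DNA-blocked target RNA library (0.1 nM) was mixed with 1 nM active affinity-purified piRISC carrying one synthetic guide, with or without 500 nM GTSF1 partner protein, in HEPES–potassium acetate buffer at 33 °C for 0–8 or 0–960 min. Uncleaved targets were sequenced and normalised to depth and to weakly complementary targets, with three trials pooled and k3 capped at 0.0001 min^-1.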
row,Sequence,pre-steady-state target cleavage rate
1,AUCACUGUCACCUUCUCUGAGACUUUAAGA,0.00679 ± 0.0035
2,UAGACUGUCACCUACUCUGAGAGAUAAACA,0.261 ± 0.034
3,UAGUGACUCACCUUCUCUGAGACGAUUAACA,0.0054 ± 0.0032
4,UACACUGUCACCUUCUGUGAGACAUUAACA,0.131 ± 0.017
5,UAGACUGUCACCUUCUCUGAGAGAUAAUCA,0.0918 ± 0.018
6,AUCACUGUCACCUUCUCUGAAAGAUUAACA,0.464 ± 0.03
7,UACACUGUCACCUUCUCUGUGAGAAUAACA,0.0586 ± 0.011
8,UAGUGACAUACCUUCUCUGAGAGAUUAACA,0.12 ± 0.013
9,UAGUGACUCACCUACUGUGAGAGAUUAACA,0.0152 ± 0.0054
10,UUCACUCUCACCUUGUCUGAGAGAUUAACA,0.219 ± 0.03
11,UAGACUGCACCUUCUCUGAGAGAUUAACA,0.698 ± 0.046
12,UAGUCUGUCACCUUCUCUGAGAGAUAUUGA [g6:g26:cont:t1A],0.0252 ± 0.009
13,AUCACUGUCACCUUGUCUGACAGAUUAACA,0.246 ± 0.032
14,UAGUGUGACACCUUCUCUGAGAGAUUAAGA,0.178 ± 0.037
15,UAGUGUGUCACUUCUCUGAGAGAUUAACA,0.326 ± 0.026
16,UAGUCUGUCACCUUCUCUGAGAGAUUAACC [g2:g26:cont:t1C],0.35 ± 0.027
17,UAGUGAGUGACGUUCUCUGAGAGAUUAACA,0.283 ± 0.023
18,UAGUGUGUCACCUUCUCUGACAGAUUAUCA,0.0626 ± 0.015
19,UAGUGACAGUCCUUCUGUGAGAGAUAAACA,0.00822 ± 0.0023
20,AUCACUGUCACCUUCUCUGAGAGAUUUUCA,0.355 ± 0.067
21,UACACUCUCACCUUCUGUGAGAGAUUAACA,0.0695 ± 0.01
22,UUCACUGUCACCUUCUCUCAGAGAUUUUGA,0.0218 ± 0.0088
23,UAGUGACUCACCUACUCUGACAGAUUAACA,0.0253 ± 0.0046
24,UAGUCUGUCACCUUGUCUCAGAGAUUAACA,0.0318 ± 0.0044

row,Sequence,pre-steady-state target cleavage rate
1,AACACUGUCACCUUCUCUGAGAGAUAAACA,0.361 ± 0.039
2,UAGUGACUCACCUUCUCUGAGAGAUGAACA,0.108 ± 0.018
3,UAGUCUGUCUCCUUCUCUGAGAGUUUAACA,0.294 ± 0.047
4,UUCACUGUGACCUACUCUGAGAGAUUAACA,0.572 ± 0.035
5,UACACCGUCACCUUCUCUGAGAGAUUAACA,0.78 ± 0.04
6,UAGUGUGUCACCUUGACUGAGAGAUUAACA,0.0613 ± 0.0069
7,UAGUGACAGACCUUCUCUCAGAGUUUAACA,0.00706 ± 0.0029
8,UACACUGUCACCUUCACUGACAGAUUAACA,0.234 ± 0.031
9,AUCAUGUCACCUUCUCUGAGAGAUUAACA,0.517 ± 0.032
10,UAGACUCUCACCUUCUCUGAGAGAUAAACA,0.21 ± 0.025
11,UAGUGACACACCUUCUCUGAGAGAUUCACA,0.482 ± 0.1
12,AUCACUGUCACCUUCUCUGUAGAGAUUAACA,0.193 ± 0.061
13,AUCACUGUCACCUUCUCUGUCAGAUUAAGA,0.0106 ± 0.005
14,UACACUGUCACCUUCUCUGUGAGUUUAACA,0.142 ± 0.017
15,UAGUGACUCACUUCUCUGAGAGAUUAACA,0.0229 ± 0.0052
16,AUCAGUCUCACCUUCUCUGAGAGAUUAACA,0.675 ± 0.027
17,UAGUGUGUCAGCAUCUCUGAGAGAUUAACA,0.368 ± 0.037
18,UACACUGUCUGCUUCUCUGAGAGAUUAUGA,0.0251 ± 0.0074
19,UAGUGACAGUGCUUCUCUGAGAGAUUCACA,0.008 ± 0.003
20,UUCAGACUCACCUUCUCUGAGAGAUUAUGA,0.0522 ± 0.01
21,UAGUGAGUCACCUUGUCAGAGAGAUUAACA,0.102 ± 0.01
22,UAGAGUGUCACCUUCUCUGAGAGAUUAAGA,0.192 ± 0.034
23,UACACUGUCACCUUCUCUGAGAUGAUUAACA,0.0639 ± 0.023
24,UAGUCUGUCACCUACACUGAGAGAUUAACA,0.218 ± 0.017

row,Sequence,pre-steady-state target cleavage rate
1,UAGUGAGUCACCUUCUCUGAGAGAUAAUCA,0.0599 ± 0.013
2,UUCACUGUCACCUUCUCAGACAGAUUAACA,0.118 ± 0.014
3,UAGUGACUCACCUACUCUGAGAGAUUAUCA,0.233 ± 0.049
4,UAGUCUGUCUCCUUCUCUGAGUGAUUAACA,0.0221 ± 0.0035
5,UAGUGAGUCACCUUCUCAGAGAGAUUUUGA,0.0623 ± 0.021
6,UAGACUGUCACCUUCUCUGAGAGACUUAACA,0.213 ± 0.024
7,AAGACUGUCACCUUCUCUGAGAGAUUAAGA,0.238 ± 0.037
8,UAGACUGUCACCUUGUCUGAGAGAUAAACA,0.408 ± 0.08
9,UAGUGACAGUCCUUCACUGACAGAUUAACA,0.00506 ± 0.0036
10,UACACACACACCUUCUCUGAGAGAUUUUGA,0.0282 ± 0.012
11,UAGUCUGUCACCUUCUCUGACACAUUAACA,0.0718 ± 0.0067
12,UAGACUGUCACCUUCUCUGAGACAUUAACA,0.0657 ± 0.0098
13,UAGUGUGUCUCCUUCUCUGAGACAUUAACA,0.0238 ± 0.0061
14,UACACUGUCACCUUCUCUGAGAGAAUAUCA,0.171 ± 0.047
15,AUCACUGUCACCUUCUCUGAGUGAUUUACA,0.0386 ± 0.01
16,UAGUCUGUCACCUUCUCUGAGAGAUAUAACA,0.4 ± 0.044
17,UACACUGUCUCCUUCUCUGAGAGAUAAACA,0.189 ± 0.029
18,UAGUCUGUCACCUUCUUGAGAGAUUAACA,0.0378 ± 0.013
19,UUCACUGAGACCUUCUCUGAGAGAUUAAGA,0.0958 ± 0.022
20,UUCACUGUCACCUUCUCUCUCAGAUUAACA,0.00363 ± 0.0035
21,UAGUGAGUCACCUUCUCUGAGAGACUUAACA,0.0994 ± 0.018
22,UAGACUGUCACCUUCUCUGAGAGAAUAACA,0.515 ± 0.091
23,AUCACUGUCACCUUCUCUGAGAGAUUAAACA,0.462 ± 0.032
24,UAGACUGUCACCUUCUGUGAGUGAUUAACA,0.016 ± 0.0029
